We go through 45 molecules from paper PMC4336329 (PLoS ONE, 2015).

Out of some 310,000 compounds screened, about 2,200 (0.71%) showed an effect of 50% or more. Effects have a minus sign here. The list shows a part of the results.

Chain of human ether-à-go-go-related gene (hERG) potassium channel (Q12809 whole entry, looked up): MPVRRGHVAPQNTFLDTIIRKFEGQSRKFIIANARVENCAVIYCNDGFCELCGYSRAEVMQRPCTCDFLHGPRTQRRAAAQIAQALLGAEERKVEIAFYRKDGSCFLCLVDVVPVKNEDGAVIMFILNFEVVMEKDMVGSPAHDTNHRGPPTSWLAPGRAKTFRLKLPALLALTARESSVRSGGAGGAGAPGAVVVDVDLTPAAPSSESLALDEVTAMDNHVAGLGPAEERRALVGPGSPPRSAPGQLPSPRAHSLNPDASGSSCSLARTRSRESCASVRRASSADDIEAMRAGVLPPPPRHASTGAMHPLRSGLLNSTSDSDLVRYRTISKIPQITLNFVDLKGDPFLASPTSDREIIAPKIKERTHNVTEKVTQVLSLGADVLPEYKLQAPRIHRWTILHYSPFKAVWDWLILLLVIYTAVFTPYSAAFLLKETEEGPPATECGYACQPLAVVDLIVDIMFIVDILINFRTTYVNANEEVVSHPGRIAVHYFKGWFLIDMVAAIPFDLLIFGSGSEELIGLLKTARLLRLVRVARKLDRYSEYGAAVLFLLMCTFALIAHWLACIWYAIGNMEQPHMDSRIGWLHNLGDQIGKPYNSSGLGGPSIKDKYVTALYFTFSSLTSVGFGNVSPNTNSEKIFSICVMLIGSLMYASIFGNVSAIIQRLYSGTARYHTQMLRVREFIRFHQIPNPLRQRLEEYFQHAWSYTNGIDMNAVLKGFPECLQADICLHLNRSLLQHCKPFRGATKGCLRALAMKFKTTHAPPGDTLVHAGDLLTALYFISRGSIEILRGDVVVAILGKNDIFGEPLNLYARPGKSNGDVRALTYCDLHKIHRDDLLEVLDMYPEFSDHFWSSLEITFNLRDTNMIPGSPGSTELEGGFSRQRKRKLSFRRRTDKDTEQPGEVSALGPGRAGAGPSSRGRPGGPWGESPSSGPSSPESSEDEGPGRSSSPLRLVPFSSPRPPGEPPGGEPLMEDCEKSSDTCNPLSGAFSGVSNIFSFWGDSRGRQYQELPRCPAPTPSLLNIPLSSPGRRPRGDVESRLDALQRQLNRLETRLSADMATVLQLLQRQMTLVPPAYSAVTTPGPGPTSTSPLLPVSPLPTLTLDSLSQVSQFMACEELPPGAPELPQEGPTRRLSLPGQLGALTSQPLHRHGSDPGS

This experiment concerns the target human ether-à-go-go-related gene (hERG) potassium channel (human, UniProt Q12809). Briefly: primary screen, population patch clamp on CHO cells stably expressing hERG.
Regarding `Br.CCc1ccc(OCC(=O)NN2Cc3ccccc3C2=N)cc1`, the “hERG current change (%, negative = inhibition) at 1uM” value is reported as -0.0505%. Next, `O=C(CN1C(=O)S/C(=C\c2ccc(O)cc2)C1=O)c1ccccc1`: 12.8%. Regarding `Cc1noc(C)c1C(=O)Nc1ccccc1N1CCOCC1`, the “hERG current change (%, negative = inhibition) at 1uM” value is 8.06%. The same measure for `Cc1ccc(C)c(CN2C(=O)C3(OCCCO3)c3ccccc32)c1`: -3.52%; for `CCOC(=O)Cc1cc(=O)n2[nH]c(C)cc2n1`: 8.16%; for `Cc1cc(C)n2nc(SCc3nc4ccccc4[nH]3)nc2n1`: 2.47%. Next, `NS(=O)(=O)c1ccc(NC(=O)COc2ccc(S(=O)(=O)N3CCCC3)cc2)cc1`: 14.5%; `COc1ccc2c(c1)C(SCC(=O)NCc1ccccc1)CC(C)(C)O2` (stereo not drawn): 7.68%; `CC(C)C(=O)NNS(=O)(=O)c1ccccc1[N+](=O)[O-]`: 6.04%. In the case of `COc1ccccc1CN=C1Nc2ccccc2CS1`, the “hERG current change (%, negative = inhibition) at 1uM” value worked out at 10.5%.

`Cc1ccccc1N=C1SC(CC(=O)Nc2ccc3ccccc3c2)C(=O)N1Cc1ccccn1` (stereo not drawn): the “hERG current change (%, negative = inhibition) at 1uM” value was determined as 7.59%. Take `CC(=O)c1ccc(S(=O)(=O)NC2CCSc3ccccc32)cc1` (stereo not drawn): the “hERG current change (%, negative = inhibition) at 1uM” value is 2.78%. Next, `C/C(=N\Nc1ccc(Cl)c(C(=O)O)c1)c1ccc(Br)s1`: 5.27%; `O=C(Cc1cn2ccsc2n1)OCc1nc2ccccc2s1`: 10.6%.

`Cc1cccc(N/C(=N/S(=O)(=O)c2ccccc2)c2ccccc2)n1`: the “hERG current change (%, negative = inhibition) at 1uM” value was 1.73%. The same measure for `O=C(Nc1nc2ccc(S(=O)(=O)N3CCCCC3)cc2s1)c1cccnc1`: -16.9%; for `Cc1ccc2nc(-c3cccnc3)c(Nc3ccccc3C)n2c1`: 10.3%. Next, `COc1ccc(NC(=O)CCSCCC(=O)Nc2ccc(OC)cc2OC)c(OC)c1`: 6.35%; `Cc1ccc(S(=O)(=O)N2CCN(C(=O)c3cccs3)CC2)c(C)c1`: 0.149%; `COc1ccccc1NC(=O)CSc1nnc(-c2ccco2)n1N`: 19.7%. The same measure for `O=C(/C=C/c1ccc(F)cc1)NC(=S)N1CCCCC1c1cccnc1` (stereo not drawn): -23%. Take `CCC(=O)N1CCc2cc(S(=O)(=O)CCC(=O)NC(C)CC)ccc21` (stereo not drawn): the “hERG current change (%, negative = inhibition) at 1uM” value was 7.83%. Next, `CCOC(=O)c1ccccc1NC(=O)COC(=O)CCCOc1ccccc1`: 8.06%; `CC(C)(C)NC(=O)C(c1ccc(O)cc1)N(Cc1ccco1)C(=O)Cn1nnc(-c2cccs2)n1` (stereo not drawn): -2.46%; `CCNC(=O)COc1ccc(Br)cc1Cl`: 7.56%.

As to `COc1ccc(C(=O)OCC(=O)NC(=O)NC2CCCC2)c(OC)c1`, the “hERG current change (%, negative = inhibition) at 1uM” value is 12.7%. Next, `O=C(CSc1ccccc1C(=O)N1CCN(c2ccccc2)CC1)N1CCCC1`: 13.9%; `CCOc1cc(Br)c(CC(=O)NC2CCCCCC2)cc1OCC`: 16.6%. `COc1ccc(CNc2nccs2)cc1OC`: the “hERG current change (%, negative = inhibition) at 1uM” value was 13%.

As for `CC1CN(O)C2CCc3c(no[n+]3[O-])C12O` (stereo not drawn), the “hERG current change (%, negative = inhibition) at 1uM” value was determined as 5.34%. The same measure for `COc1ccc(N(C(=O)c2snc(C(N)=O)c2N)C(C(=O)NC2CCCCC2)c2ccc(C)o2)c(OC)c1` (stereo not drawn): 6.4%. The same measure for `COc1ccccc1-c1nnn(CC#N)n1`: 3.77%.

On to `COC(=O)c1c(NC(=O)CCCC(=O)O)sc(C)c1C`, for which the “hERG current change (%, negative = inhibition) at 1uM” value was found to be 11.9%. For `O=C(NNC(=O)c1ccc(Cn2cccn2)o1)NC12CC3CC(CC(C3)C1)C2`, the “hERG current change (%, negative = inhibition) at 1uM” value is 17.3%. Take `O=C(Nc1ccc(Oc2ncnc3cc(Cl)ccc23)nc1)Nc1cccc(C(F)(F)F)c1`: the “hERG current change (%, negative = inhibition) at 1uM” value was 0.781%. As for `O=C(CNC(=O)c1ccncc1)N/N=C/c1ccccn1`, the “hERG current change (%, negative = inhibition) at 1uM” value amounted to 11.8%. Next, `CCC(NS(=O)(=O)c1ccc(C)cc1)C(=O)N1CCOCCOCCOCC1` (stereo not drawn): 20.3%.

`COc1ccccc1NC(=S)N(Cc1ccccn1)Cc1ccccc1Cl`: the “hERG current change (%, negative = inhibition) at 1uM” value is -2.77%.

As for `O=C(NCCCc1ccncc1)C1CCC(=O)N(Cc2ccc(Cl)cc2)C1` (stereo not drawn), the “hERG current change (%, negative = inhibition) at 1uM” value was 0.771%.

Turning to `CCOC(=O)C1CCCN(S(=O)(=O)c2nc3nc(C)cc(C)n3n2)C1` (stereo not drawn), the “hERG current change (%, negative = inhibition) at 1uM” value was found to be 14.2%. Consider `CCOC(=O)c1sc(NC(=O)c2cccnc2)c(C#N)c1C`, for which the “hERG current change (%, negative = inhibition) at 1uM” value turned out to be 24%.

In the case of `O=C(NCc1ccc2c(c1)OCO2)c1ccc(CS(=O)(=O)c2cccc(C(F)(F)F)c2)o1`, the “hERG current change (%, negative = inhibition) at 1uM” value came to 6.15%.

Regarding `CCOC(=O)c1c(-c2ccccc2)n(C)c2ccc(O)cc12`, the “hERG current change (%, negative = inhibition) at 1uM” value is given as 7.42%. Turning to `COc1ccc(-c2noc3c2-c2nc(-c4ccc(Cl)cc4)sc2CC3)cc1`, the “hERG current change (%, negative = inhibition) at 1uM” value was 4.12%. In the case of `CC1(CCc2ccccc2)NC(=O)N(Cc2nnc(-c3ccccc3Br)o2)C1=O` (stereo not drawn), the “hERG current change (%, negative = inhibition) at 1uM” value was -2.2%.
